Results: PubChem BioAssay AID1508624 (National Center for Advancing Translational Sciences (NCATS), 2021)
Out of some 48,000 compounds screened, about 120 (0.25%) were called active. Inconclusive results (about 4%) are left out. The call rests on the fitted dose curve; in most records, active means well fitted activation curve with a large enough effect; inconclusive means small, poorly fitted or top-dose-only effect, or another doubt; inactive means no such curve, though single readings can be large or run the other way. The list shows a part of the results.

Experiment: Primary qHTS for Identification of Small Molecule Activators of Huntingtin-Antisense Promoter Activity; further: nearly all actives have a fitted effect of over 55% in size
Conditions: HEK293 HTT-AS promoter firefly luciferase reporter, 24 h; series mostly up to 57.5 µM; activity change, positive = activation: at the top concentration
Procedure, shortened: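 Luminescence was read after Dual-Glo reagent and a 10 min room-temperature incubation. Values were normalized to vehicle (0% activity) and zero RLU (-100% activity). Reporter HEK293 cells had been exposed to compounds (up to 57.5 uM final) for 24 h.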

Activity change, positive = activation, inactive:
COC(=O)c1ccccc1NC(=O)C1=CC(c2cccs2)=NS(=O)(=O)N1C -19.5%
COc1ccc(-n2nc3cc(C)c(NC(=O)c4ccc(-c5ccc(Cl)cc5)o4)cc3n2)cc1 8.03%
Cc1cc(OCC(=O)Nc2cc(-c3nc4ncccc4o3)ccc2C)ccc1Cl 2.48%
Cc1ccc(S(=O)(=O)c2nnn(-c3ccc(F)c(Cl)c3)c2N)cc1 -23.4%
COc1ccc(OCc2ccc(-c3nc(C#N)c(NC(C)c4ccccc4)o3)o2)cc1 (stereo not given) -13.6%
CCOc1ccc2nc(N3CCCC(C(=O)NCCc4ccc(OCC)c(OCC)c4)C3)sc2c1 (stereo not given) 23.3%
Cc1cccc(C)c1Nc1c(-c2ccccn2)nc2c(C)cccn12 -32%
Cc1nn(CC(=O)Nc2ccc(OC(F)(F)F)cc2)c(=O)c2c(C)n(-c3ccc(Cl)cc3)nc12 -24.4%
COc1ccc(CCNC(=O)c2nc(-c3ccc(Cl)cc3)n3c2CCCCC3)c(OC)c1 -30%
O=C(Cc1cccs1)NC1CC(=O)N(c2ccc(F)cc2)C1 (stereo not given) -15.4%
COc1ccc(-c2nc3ccccc3s2)cc1NC(=O)c1ccccc1F -9.41%
Cc1oc(-c2ccc(C(=O)NCc3ccccc3)cc2)nc1CN1CCc2ccccc21 -37.1%
COc1ccc(-c2csc3ncnc(Nc4cccc(OC)c4)c23)cc1 -10.5%
CSc1cccc(NC(=O)Nc2ccccc2OCc2cc(=O)n3cc(C)ccc3n2)c1 17.3%
CCOCCCNC(=O)c1ccc(-n2c(-c3ccccc3)cc3c2CCC(C)C3)cc1 (stereo not given) -47.9%
CCC(=O)N1CCc2cc(Br)cc(S(=O)(=O)CCC(=O)N3CCN(c4cccc(C)c4)C(C)C3)c21 (stereo not given) 1.06%
CCc1ccc(S(=O)(=O)Nc2ccc3c(c2)n(C)c(=O)c(=O)n3C)cc1 -36.7%
Cc1cc(N)c2cc(NC(=O)Nc3ccc4nc(C)cc(N)c4c3)ccc2n1 -11%
Cc1ccc2c(c1)C(c1ccc(F)cc1)N(C(=O)c1ccc(S(=O)(=O)N3CCCCC3)cc1)CC(=O)N2 (stereo not given) -21.4%
COc1ccc(C(=O)Nc2ccc3nc(SCC(=O)N4CCc5ccccc54)sc3c2)cc1 -16.7%
COc1ccc(NC(=O)CCNS(=O)(=O)c2ccc3c(c2)CCCC(=O)N3)cc1Cl -21.3%
O=C(NCc1ccc(Cl)cc1)NCc1noc2ccccc12 18.8%
COc1ccc(CNC(=O)c2cc3c(=O)n(Cc4cccnc4)ccc3nc2C)cc1 -14.5%
COc1ccccc1CNC(=O)c1cc2c(=O)oc3ccc(C)cc3c2s1 19.8%
COc1ccccc1CCNC(=O)Cc1ccc(NC(=O)N2CCSc3ncccc32)cc1 -20.2%
CCCNS(=O)(=O)c1cc(-c2nn3c(C)nnc3c3ccccc23)ccc1C -20.5%
Cc1ccc(-n2c(=O)c3c4c(sc3n(Cc3cc(=O)n5cc(Cl)ccc5n3)c2=O)CCC4)cc1C 13.4%
CCOC(=O)c1ccccc1NC(=O)CN(c1cccc(C)c1C)S(=O)(=O)c1ccccc1 -29.4%
CCc1ccc(-c2nn(CC(=O)NC3CCCCC3)c3c2cnc2ccc(F)cc23)cc1 7.59%
CC(=O)N1CCCc2cc(S(=O)(=O)N3CCCC(C(=O)NCc4ccccc4Cl)C3)ccc21 (stereo not given) -32.2%
CCOc1ccccc1NC(=O)C1CCN(S(=O)(=O)c2ccc3[nH]c(=O)oc3c2)CC1 -21.6%
CC1CCc2c(cc(-c3ccccc3)n2-c2ccc(C(=O)NC(C)C)cc2)C1 (stereo not given) -38.3%
CCc1cccc(OCC(=O)Nc2ccc(S(=O)(=O)Nc3ncccn3)cc2)c1 -1.91%
CC(C)(C)c1ccc(OCc2nc3ccccc3n2CCOc2ccccc2)cc1 36.8%
Cc1cccc(C)c1OCc1nc2c3cnn(-c4ccccc4F)c3ncn2n1 -4.96%
COc1cccc(NC(=O)CSc2nc3c([nH]c4ccccc43)c(=O)n2-c2cc(C)cc(C)c2)c1 -21.8%
CC(=O)c1ccc(S(=O)(=O)N2CCn3cccc3C2c2ccccc2F)cc1 (stereo not given) -25%
Cc1cc(C)cc(NC(=O)Cc2csc(C)n2)c1 -11.9%
CCSc1ncc(Cl)c(C(=O)Nc2nnc(CC)s2)n1 3.64%
O=C(c1ccccc1F)N1c2ncnn2C2(CCCCC2)[C@@H]2CCCC[C@@H]21 -6.76%
Cc1cccc(Nc2nc(N)nc(N)c2S(=O)(=O)c2ccccc2)c1 -17.9%
CCC(C(=O)NCCc1ccccc1)n1nc(C)c2sc3ccccc3c2c1=O (stereo not given) -17.2%
COc1ccc(C2=C(C)C(N3CCC(C(=O)Nc4ccccc4F)CC3)=NS2(=O)=O)cc1 -7.23%
Cc1c(C)n(Cc2ccc(F)cc2)c2ccc(C(=O)N3CCN(c4ccc(F)cc4)CC3)cc12 -21.9%
O=C(C1CCN(c2ncnc3c2nc2n3CCCCC2)CC1)N1CCN(c2ccccc2F)CC1 -38.5%
CCOc1ccc2oc(=O)cc(CN3CCN(C(=O)c4ccc(OC)c(OC)c4)CC3)c2c1 -16.7%
Cc1ccc(N2C(=O)c3n[nH]c(C)c3C2c2ccc(Cl)cc2)cc1 (stereo not given) 21.2%
CCOC(=O)c1[nH]c2c(c1Cc1ccccc1OC)C(=O)CC(c1ccc(OC)cc1)C2 (stereo not given) -26.7%
CCc1ccc(-n2c(=O)c3c4c(sc3n(Cc3cc(=O)n5c(C)cccc5n3)c2=O)CCC4)cc1 -13.6%
Cc1ccc(CNC(=O)c2nn(-c3ccc(Cl)cc3)nc2CO)cc1 -19.3%
Cc1ccccc1CSc1nnc2[nH]c(=O)cc(-c3ccccc3)n12 0.291%
CCOC(=O)c1ccccc1NC(=O)Cn1ncc2c1-c1ccccc1OC2 -24.5%
Cc1cc(C)cc(NC(=O)CSc2oc(-c3ccccc3)nc2S(=O)(=O)c2ccc(Cl)cc2)c1 -11.2%
Cc1ccc(NC(=O)Cn2nc(C(F)(F)F)c3c2CCCC3)cc1C -17.9%
N=C1N=C(N)c2cc3ccccc3cc21 -70.6% [at 116 µM, percent change from vehicle, -100% = no light]
CCc1ccccc1NS(=O)(=O)c1ccc2nc(-c3ccccc3)[nH]c2c1 -37.2%
CC(C)OCCCNC(=O)C(=O)Nc1c2c(nn1-c1ccccc1)CS(=O)(=O)C2 -9.19%
CC(=O)NC(CS)C(=O)O (stereo not given) -8.5%
Cc1ccc2c(c1)N(CC(=O)NCCc1ccccc1)C(=O)CO2 -20.5%
COc1ccc(-c2nc3ccccc3n3c(-c4cccc(C)c4)c4c(=O)n(C)c(=O)n(C)c4c23)cc1OC -36.7%
CCC(C)NC(=O)c1c(C)oc2ncn(CC(C)C)c(=O)c12 (stereo not given) -4.93%
O=C(CCS(=O)(=O)c1cc(Br)cc2c1N(C(=O)C1CC1)CC2)N1CCN(c2cccc(Cl)c2)CC1 -8.77%
CCOc1ccccc1OCC1CNCCO1 (stereo not given) -3.87%
O=C(Cn1c(=O)n(CCc2ccccc2)c(=O)c2cccnc21)Nc1ccc(F)cc1 -11.7%
CCCCNC(=O)C1CCC(Cn2c(=O)c3sccc3n(Cc3ccccc3)c2=O)CC1 (stereo not given) -9.29%
CCC(=O)N1CCc2cc(S(=O)(=O)NC(C(=O)NCCc3ccc(OC)c(OC)c3)C(C)C)ccc21 (stereo not given) 4.47%
Cc1cc(C)c(NC(=O)c2nc3ccccc3nc2N2CCCCC2)c(C)c1 4.94%
CCCCNC(=O)CSc1nc2cc3c(cc2c(=O)n1CCCC(=O)NCCc1ccc(OC)c(OC)c1)OCO3 -13%
CC1=C(C(=O)OC2CCCC2)C(c2c(Cl)cccc2Cl)CC(=O)N1 (stereo not given) -33.4%
COc1cc(NC(=O)C2CCN(C(=O)c3sc4nc[nH]c(=O)c4c3C)CC2)cc(OC)c1OC 0.883%
CCCn1c(CCC(=O)Nc2cc(C(=O)OC)cc(C(=O)OC)c2)nc2cccnc21 -18.5%
COC(=O)c1scc(-c2ccc(C)cc2)c1S(=O)(=O)Nc1cc(Cl)c(OC)cc1OC -19.6%
CCCCOc1ccc(Cn2c(=O)sc3ccccc32)cc1OC -18.9%
CCCn1c(CCC(=O)Nc2cc(OC)cc(OC)c2)nc2cccnc21 -8.69%
CCOC(=O)c1[nH]cnc1C(=O)Nc1cccc(OC)c1 -12.1%
C[C@H]1COC2=C1C(=O)C(=O)c1c2ccc2c1CCCC2(C)C -21.4%
N#CC1(c2cccc(C(=O)Nc3cc(Oc4ccc5nc(NC(=O)C6CC6)sc5n4)ccc3F)c2Cl)CC1 -4.46%
Cc1cc(NC(=O)CCn2c(=O)c3cccn3c3cccnc32)ccc1Br -2.34%
NC(=O)Cc1cccc(C(=O)c2ccccc2)c1N
CCC(=O)N1c2ccccc2CC1C(=O)NCCc1cc(OC)c(OC)c(OC)c1 (stereo not given) -6.44%
CCCN1CCN(c2nnc(-n3cccc3C(=O)Nc3cc(Cl)ccc3C)s2)CC1 -19.1%
CCSc1ncc(Cl)c(C(=O)Nc2nc3ccc(S(C)(=O)=O)cc3s2)n1 -17.5%
Cc1ccc(NC(=O)C2CCCN(S(=O)(=O)c3cccc4nsnc34)C2)cc1C (stereo not given) -17.9%
COc1ccc(-n2c(=O)c3sc4ccccc4c3n(C)c2=O)cc1 -3.3%
Cc1ccc(C)c(Cn2c(=O)n(CCCCC(=O)NCc3ccc4c(c3)OCO4)c(=O)c3ccccc32)c1 -20.4%
CCCCn1cc(S(=O)(=O)c2cc(C)ccc2C)c(=O)c2cc(F)c(N3CCC(C)CC3)cc21 -1.8%
CCOC(=O)c1c(C)[nH]c(C)c1S(=O)(=O)N1CCC(C(=O)Nc2ccc(OCC)cc2)CC1 -2.17%
CC(C)OCCCNc1ncnc2sc3c(c12)CCCC3 -39%
CCc1cccc(NC(=O)CN(c2ccc(C)c(C)c2)S(=O)(=O)c2ccsc2C(=O)OC)c1 -19.5%
Cc1ccc(C)c(N2CCN(C(=O)CN3C(=O)COc4ccc(S(=O)(=O)N5CCCC5)cc43)CC2)c1 -9.28%
COc1ccc(C(=O)NCC(c2ccco2)S(=O)(=O)c2ccc(F)cc2)cc1 (stereo not given) -11.1%
CN(C)CC[C@H](CSc1ccccc1)Nc1ccc(S(=O)(=O)NC(=O)c2ccc(N3CCN(Cc4ccccc4-c4ccc(Cl)cc4)CC3)cc2)cc1[N+](=O)[O-] -12.5%
CCCCN(CCCC)CCCNC(=O)Cn1cc2c(n1)-c1c(oc(C(=O)N3CCCC3)c1C)CC2 -3.27%
CCOC(=O)c1ccc(N2C(=O)c3[nH]nc(-c4ccc(C)cc4)c3C2c2cccs2)cc1 (stereo not given) -43.5%
CSc1ncc(C(=O)Nc2ccccc2C(F)(F)F)c(-c2ccccc2)n1 -6.13%
